The whole screen tested about 270,000 compounds, of which about 5,800 (2.1%) were called active. Inconclusive results, whose numbers are uncertain, are shown with a selection of clear calls. The call rests on the fitted dose curve; in most records, active means well fitted inhibition curve with a large enough effect; inconclusive means small, poorly fitted or top-dose-only effect; inactive means flat fitted curve, though single readings scatter. Potencies of inconclusive entries are doubtful fits and often do not repeat.
molecular target: Microtubule-associated protein tau (Homo sapiens) (UniProt P10636); assay: qHTS for Inhibitors of Tau Fibril Formation, Thioflavin T Binding; settings: recombinant tau K18 P301L (four-repeat tau fragment), heparin-induced fibrillization, ThT fluorescence; series mostly up to 57.4 µM; activity, negative = inhibition: at the top concentration; further: nearly all actives have a fitted effect of over 55% in size
Chain of UniProt P10636 (P10636 whole entry, looked up, the tested form may be a part): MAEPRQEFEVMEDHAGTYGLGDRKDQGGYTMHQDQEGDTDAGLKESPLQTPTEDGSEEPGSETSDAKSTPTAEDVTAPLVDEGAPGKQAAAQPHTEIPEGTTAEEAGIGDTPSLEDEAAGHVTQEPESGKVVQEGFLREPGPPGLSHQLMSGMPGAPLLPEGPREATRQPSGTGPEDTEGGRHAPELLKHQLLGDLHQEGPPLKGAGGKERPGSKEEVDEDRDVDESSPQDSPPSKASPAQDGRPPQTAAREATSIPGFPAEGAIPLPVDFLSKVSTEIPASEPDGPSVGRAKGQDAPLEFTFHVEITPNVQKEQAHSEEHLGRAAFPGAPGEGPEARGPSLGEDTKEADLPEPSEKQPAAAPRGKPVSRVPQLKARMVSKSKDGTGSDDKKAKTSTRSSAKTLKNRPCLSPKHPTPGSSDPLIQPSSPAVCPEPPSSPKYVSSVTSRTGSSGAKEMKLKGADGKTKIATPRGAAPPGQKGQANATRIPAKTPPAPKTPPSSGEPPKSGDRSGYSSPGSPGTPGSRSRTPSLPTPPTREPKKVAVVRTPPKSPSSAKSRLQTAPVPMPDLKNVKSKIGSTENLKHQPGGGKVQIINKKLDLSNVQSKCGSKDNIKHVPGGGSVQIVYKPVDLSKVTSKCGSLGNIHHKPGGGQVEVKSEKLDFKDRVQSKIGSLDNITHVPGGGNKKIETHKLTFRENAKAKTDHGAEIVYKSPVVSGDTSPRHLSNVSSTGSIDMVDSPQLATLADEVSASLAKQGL
Outline: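 In this qHTS, human K18 P301L tau is incubated with compound and heparin for 6 hr at 37 C, and Thioflavin T fluorescence then reports fibril load.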
On the % scale 0 is the no-effect control and ±100 the full control effect; potency means the concentration at half of the fitted maximal effect; tags describe the fitted curve by direction and shape.

Row | SMILES | Potency | activity, negative = inhibition
1 | COc1cc2c3c(c1)C(C)CC(C)(C)N3C(=O)C2=O (stereo not drawn) | inconclusive: 22.4 µM [inhibitor, single point] | –
2 | C/C(=N\NC(=S)NC(C)C)c1ccc(Cl)c([N+](=O)[O-])c1 | inconclusive: 3.55 µM [inhibitor, partial curve, poor fit] | –
3 | CCC(Sc1nc2ccccc2c2nc(CCn3c(C)nc4ccccc43)nn12)C(=O)Nc1ccc(F)cc1 (stereo not drawn) | – | inactive: -17.6%
4 | CCOc1ccccc1NC(=O)CC(c1ccc(F)cc1)N1Cc2ccccc2C1=O (stereo not drawn) | – | inactive: -5.58%
5 | COc1ccc(Br)c(C(=O)Nc2cc3c(cc2N2CCCC2)n(C)c(=O)c(=O)n3C)c1 | inconclusive: 25.1 µM [inhibitor, single point] | –
6 | Cc1cccc(N2CCN(C(=O)COc3ccc4c(c3)CCC4)CC2)c1C | inconclusive: 20 µM [inhibitor, partial curve, poor fit] | –
7 | Cc1c(NC2=C(Cl)C(=O)N(c3ccccc3Cl)C2=O)c(=O)n(-c2ccccc2)n1C | inconclusive: 15.8 µM [inhibitor, partial curve] | –
8 | COCCN(C(=O)CC1C(=O)NCCN1Cc1ccc(-c2ccccc2)cc1)C(C)C (stereo not drawn) | inconclusive: 20 µM [inhibitor, partial curve] | –
9 | O=[N+]([O-])c1ccc2sc(SCc3nc4ccccn4c3Br)nc2c1 | inconclusive: 2 µM [inhibitor, partial curve] | –
10 | Cc1ccc(C(C2=C(O)CC(C)(C)CC2=O)C2C(=O)CC(C)(C)CC2=O)o1 (stereo not drawn) | – | inactive: -20.3%
11 | CCOC(=O)c1cnc(-c2ccccc2)nc1-c1ccccc1 | inconclusive: 20 µM [inhibitor, partial curve] | –
12 | CC(=O)CCc1oc2ccc(C)cc2c1-c1ccccc1 | – | inactive: -3.66%
13 | O=C(c1ccc(Cl)cc1)c1cc([N+](=O)[O-])ccc1N1CCOCC1 | – | inactive: -6.73%
14 | Brc1ccc(-c2ccc(/C=N/Nc3nc(N4CCOCC4)nc(N4CCOCC4)n3)o2)cc1 | – | inactive: -12%
15 | COc1ccc(CCNC(=O)c2cc(=O)c3cc(C)cc(C)c3o2)cc1OC | inconclusive: 17.8 µM [inhibitor, partial curve, poor fit] | –
16 | OC1(c2ccccc2F)CCN(Cc2nnnn2Cc2ccc(F)cc2)CC1 | – | inactive: 2.16%
17 | CCOC(=O)Oc1ccc(C(=O)OCCCN(C)C)cc1OC | – | inactive: 11.8%
18 | O=C(c1ccc(Cl)cc1)c1coc2ccc(O)cc12 | inconclusive: 8.91 µM [inhibitor, partial curve] | –
19 | CC(CCc1ccccc1)NC(=O)CN1CCSc2ccccc21 (stereo not drawn) | inconclusive: 22.4 µM [inhibitor, partial curve] | –
20 | N=c1n(CCO)c2ccccc2n1Cc1ccccc1F | – | inactive: -2.34%
21 | CCOCc1cn(CC(=O)c2ccc([N+](=O)[O-])cc2)c(C)nc1=N | inconclusive: 6.31 µM [inhibitor, partial curve] | –
22 | CC(=O)Nc1cccc(N=NN2CCCCC2)c1 | inconclusive: 17.8 µM [inhibitor, partial curve] | –

Row | SMILES | Potency | activity, negative = inhibition
23 | Cc1ccc(NC(=O)N2CCN(c3nnc(C)c4c(C)n(-c5ccc(Cl)cc5)nc34)CC2)c(C)c1 | – | inactive: 3.54%
24 | O=C(N/N=C/c1cccc(Oc2ccc([N+](=O)[O-])cc2[N+](=O)[O-])c1)c1cncc(Br)c1 | inconclusive: 7.94 µM [inhibitor, partial curve] | –
25 | O=C(CSc1nnc2scc(-c3ccccc3)n12)NCc1ccco1 | – | inactive: 8.33%
26 | COc1ccc(/C=N/NC(=O)CO/N=C(\C)c2cccs2)cc1 | inconclusive: 31.6 µM [inhibitor, partial curve] | –
27 | O=C(Nc1ccc(-c2nc3ccccc3s2)c(OC(=O)c2ccccc2)c1)c1ccccc1 | inconclusive: 5.01 µM [inhibitor, partial curve] | –
28 | C#Cc1ccc([C@@H]2C=C(C(=O)NC3CC3)O[C@H](OCCCCO)C2)cc1 | – | inactive: -7.66%
29 | CCC1(C)NC(=O)N(CC(=O)Nc2sc3c(c2C(N)=O)CCC3)C1=O (stereo not drawn) | inconclusive: 39.8 µM [inhibitor, single point] | –
30 | Cn1c(=O)c([N+](=O)[O-])c(NCCc2ccccc2)c2ccccc21 | inconclusive: 14.1 µM [inhibitor, single point] | –
31 | O=C(CSc1nc2cc(Cl)ccc2s1)c1ccco1 | inconclusive: 31.6 µM [inhibitor, single point] | –
32 | c1cnc(SCCOc2cccc3ccccc23)nc1 | inconclusive: 15.8 µM [inhibitor, partial curve, poor fit] | –
33 | COc1ccc(-c2nc(C)c(CCNC(=O)c3c(F)cccc3F)s2)cc1 | inconclusive: 7.08 µM [inhibitor, partial curve] | –
34 | CCOc1ccc(OCC)c(NC(=O)CCc2nc3cccnc3n2Cc2cccs2)c1 | inconclusive: 15.8 µM [inhibitor, partial curve] | –
35 | C=C(C)CSc1nnc(-c2cccc(Cl)c2)n1N | inconclusive: 3.98 µM [inhibitor, partial curve] | –
36 | COC(=O)c1cccc(NC(=S)Nc2cc(Cl)ccc2OC)c1 | – | inactive: -12.6%
37 | CCCc1[nH]n(-c2ccc([N+](=O)[O-])cc2)c(=O)c1C=NCCCn1ccnc1 | inconclusive: 14.1 µM [inhibitor, partial curve] | –
38 | CCCNc1nc(Nc2ccc(C)cc2)nc(N2CCCC2)n1 | inconclusive: 15.8 µM [inhibitor, partial curve, poor fit] | –
39 | CC1Oc2ccccc2C=C1/C=N/Nc1ccc(C(=O)O)cc1 (stereo not drawn) | inconclusive: 22.4 µM [inhibitor, partial curve] | –
40 | Cc1ccc(/C=N\NC(=O)COc2ccc(C)cc2[N+](=O)[O-])cc1 | inconclusive: 31.6 µM [inhibitor, single point] | –
41 | COc1ccc(C(=O)CSc2nnc(CNc3ccc(C)cc3C)n2Cc2ccco2)cc1 | inconclusive: 17.8 µM [inhibitor, partial curve] | –
42 | Cc1ccc(NS(=O)(=O)c2ccc3c(c2)[C@H]2C=CC[C@H]2[C@@H](c2ccc(F)cc2)N3)cc1C | inconclusive: 12.6 µM [inhibitor, partial curve] | –
43 | CCOC(=O)c1c(C)[nH]c(C(=O)OCC(=O)N2CCc3ccccc32)c1C | inconclusive: 0.562 µM [inhibitor, full curve] | –

From PubChem BioAssay AID1460 (National Center for Advancing Translational Sciences (NCATS), 2008)
